From PubChem BioAssay AID504332 (National Center for Advancing Translational Sciences (NCATS), 2011)
Hit rate of the full screen: of about 350,000 compounds, about 31,000 (8.9%) were called active. Inconclusive results, whose numbers are uncertain, are shown with a selection of clear calls. Calls come from the whole dose curve; as a rule, active = well fitted inhibition curve with a large enough effect; inconclusive = small, poorly fitted or top-dose-only effect; inactive = no such curve, though single readings can be large or run the other way. Where the call is inconclusive, the potency comes from a doubtful curve fit.

Each compound was assayed against Histone-lysine N-methyltransferase EHMT2 (Homo sapiens) (UniProt Q96KQ7) (assay: qHTS Assay for Inhibitors of Histone Lysine Methyltransferase G9a). Conditions: G9a H3K9 monomethylation, AlphaScreen, 2 h; activity, negative = inhibition: at 59 µM (top of the series) unless noted.
Chain of UniProt Q96KQ7 (Q96KQ7 whole entry, looked up): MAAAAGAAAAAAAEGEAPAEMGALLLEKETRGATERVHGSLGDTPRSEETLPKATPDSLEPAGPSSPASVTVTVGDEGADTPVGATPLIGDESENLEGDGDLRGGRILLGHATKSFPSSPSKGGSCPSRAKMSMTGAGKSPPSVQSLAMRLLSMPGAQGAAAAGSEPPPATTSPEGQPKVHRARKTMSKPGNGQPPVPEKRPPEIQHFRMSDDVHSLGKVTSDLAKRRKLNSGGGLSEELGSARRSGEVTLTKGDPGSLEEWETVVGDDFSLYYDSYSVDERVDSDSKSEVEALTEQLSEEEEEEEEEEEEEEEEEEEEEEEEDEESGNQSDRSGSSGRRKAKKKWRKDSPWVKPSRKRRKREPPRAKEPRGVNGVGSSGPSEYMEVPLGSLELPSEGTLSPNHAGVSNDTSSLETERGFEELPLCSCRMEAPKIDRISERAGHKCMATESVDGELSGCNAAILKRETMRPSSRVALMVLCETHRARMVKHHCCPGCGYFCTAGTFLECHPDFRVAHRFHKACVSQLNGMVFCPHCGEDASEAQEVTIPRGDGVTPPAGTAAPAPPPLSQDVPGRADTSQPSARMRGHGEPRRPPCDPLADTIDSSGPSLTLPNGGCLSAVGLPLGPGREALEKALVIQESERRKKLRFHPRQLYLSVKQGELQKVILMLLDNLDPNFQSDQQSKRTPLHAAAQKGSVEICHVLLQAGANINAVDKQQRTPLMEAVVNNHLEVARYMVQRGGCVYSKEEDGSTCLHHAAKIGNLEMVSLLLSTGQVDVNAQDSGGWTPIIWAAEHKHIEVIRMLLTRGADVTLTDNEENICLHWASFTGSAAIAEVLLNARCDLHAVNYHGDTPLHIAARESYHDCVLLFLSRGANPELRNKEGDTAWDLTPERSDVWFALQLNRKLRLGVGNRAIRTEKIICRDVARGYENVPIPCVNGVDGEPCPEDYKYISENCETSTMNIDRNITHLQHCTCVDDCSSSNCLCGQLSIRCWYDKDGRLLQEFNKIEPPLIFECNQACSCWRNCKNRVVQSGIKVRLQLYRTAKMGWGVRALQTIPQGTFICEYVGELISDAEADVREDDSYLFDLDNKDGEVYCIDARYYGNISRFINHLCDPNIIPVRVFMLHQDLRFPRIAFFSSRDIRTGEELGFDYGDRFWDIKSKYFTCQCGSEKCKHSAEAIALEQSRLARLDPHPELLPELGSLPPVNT
Method in brief: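 AlphaScreen read-out: biotin-H3K9 peptide (500 nM) methylation by 20 nM enzyme with 20 uM SAM, 2 h at room temperature after 15 min compound preincubation; anti-monomethyl H3K9 antibody plus donor/acceptor beads, 10 min dark.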
% is set by controls: 0 for no effect and ±100 for the full control effect; potency is the fitted concentration of half-maximal effect; tags give direction and shape of the fitted curve.
Note: nearly all actives have a fitted effect of over 75% in size.

| Structure (SMILES) | activity, negative = inhibition | Potency |
| --- | --- | --- |
| CCC(C(=O)NCC1CCCO1)N(C(=O)c1snc(C(N)=O)c1N)c1ccc(Cl)cc1 (stereo unspecified) | inactive: -1.15% [at 102 µM] |  |
| CCOc1ccc(CC2S/C(=N/c3ccccn3)NC2=O)cc1 (stereo unspecified) |  | inconclusive: 89.1 µM [inhibitor, single point] |
| O=C(O)c1nn(-c2ccccc2)c(-c2ccccc2)c1C(=O)c1ccccc1 |  | inconclusive: 1.41 µM [inhibitor, full curve] |
| CC(=O)c1ccc(NC(=O)CC(NCCC2=CCCCC2)C(=O)O)cc1 (stereo unspecified) |  | inconclusive: 39.8 µM [inhibitor, single point] |
| CC(=O)c1cccc(NC(=O)C(Cc2ccccc2)NS(=O)(=O)c2ccc(Br)s2)c1 (stereo unspecified) | inactive: 7.43% |  |
| Cn1c(SCc2nn[nH]n2)nc2c1c(=O)n(Cc1ccccc1Cl)c(=O)n2C |  | inconclusive: 3.98 µM [inhibitor, single point] |
| CC(C)CCN(CC(=O)NC1CCCC1)C(=O)C(=O)Nc1ccc2c(c1)OCCO2 | inactive: 8.43% [at 102 µM] |  |
| NC(=O)CC(NC(=O)c1ccc(Br)cc1)c1ccc(NCc2ccc(F)c(F)c2)c([N+](=O)[O-])c1 (stereo unspecified) | inconclusive: -60.5% [inhibitor] |  |
| CN(C)c1ccc(CNC(=O)CCCN2C(=O)CCn3nc(-c4cccn4C)cc32)cc1 |  | inconclusive: 31.6 µM [inhibitor, single point] |
| CC(C)/C(=N/Nc1ccccc1[N+](=O)[O-])c1ccccc1 | inconclusive: -93.1% [inhibitor] [at 12.7 µM] |  |
| O=C(Nc1cc2c3c(c1)CC(=O)N3CCC2)c1ccc(Br)o1 |  | inconclusive: 56.2 µM [inhibitor, partial curve, poor fit] |
| Cc1cc(C)c(N=C2C(=O)Nc3ccccc32)c(C)c1 | inactive: -19.8% [at 102 µM] |  |
| COc1ccc(C(=O)Nc2ccc(-c3cc4ccccc4oc3=O)c(C)c2)cc1Br | inconclusive: -56.6% [inhibitor] |  |
| Cc1cc(C)cc(NC(=S)N2CCN(S(=O)(=O)c3ccccc3)CC2)c1 | inactive: -11.1% [at 102 µM] |  |
| COCCN(C(=O)COC(=O)c1ccc(C)s1)c1c(N)n(Cc2ccccc2)c(=O)[nH]c1=O | inactive: -3.35% [at 102 µM] |  |
| CCOC(=O)C1CCN(c2c(C(=O)c3ccccc3)cnc3ccc(CC)cc23)CC1 |  | inconclusive: 56.2 µM [inhibitor, partial curve, poor fit] |
| O=C(NCc1ccccc1Cl)c1nnc(CS(=O)(=O)c2ccccc2)o1 | inactive: 17.7% [at 102 µM] |  |
| C1=C(c2ccccc2)Nc2nnnn2C1 |  | inconclusive: 0.708 µM [inhibitor, full curve, poor fit] |
| COc1ccc(Br)cc1CNC(=O)Nc1cccs1 |  | inconclusive: 7.08 µM [inhibitor, single point] |
| CCCS(=O)(=O)N1CCCC(C(=O)Nc2ccc3c(c2)CCC3)C1 (stereo unspecified) | inactive: 3.63% [at 12.7 µM] |  |
| O=C(CSc1nnc(-c2ccco2)n1Cc1ccccc1)OC1CCCCC1 |  | active: 50.1 µM |
| Cc1cccc(NC(=O)/C(C#N)=C\c2cn(CC(=O)O)c3ccccc23)c1 |  | active: 39.8 µM |
| Cc1ccc(O)c(-c2ccnc3cc(-c4ccc(Cl)cc4)nn23)c1 | inactive: -1.46% |  |

| Structure (SMILES) | activity, negative = inhibition | Potency |
| --- | --- | --- |
| COc1cc(-c2nc3sccn3c2Nc2cccc(C)c2)ccc1O |  | active: 11.2 µM |
| Cn1cnc2cc(NCc3ccc(Cl)cc3)ccc21 |  | active: 44.7 µM |
| Cc1ccccc1-n1nc2c(c1NC(=O)c1ccc(S(=O)(=O)N(C)C)cc1)CSC2 |  | inconclusive: 44.7 µM [inhibitor, partial curve] |
| CN1CCN(C(=O)CCc2ncc(C(F)(F)F)cc2Cl)CC1 |  | inconclusive: 89.1 µM [inhibitor, partial curve, poor fit] |
| CC(=O)N1CCN(C(=S)c2ccc(-c3ccc(Cl)cc3)o2)CC1 |  | active: 3.98 µM |
| C/C(=N\Nc1nc2ccccc2s1)c1ccc2c(c1)OCO2 |  | inconclusive: 1.78 µM [inhibitor, partial curve, poor fit] |
| CC1(C)Cc2c(c(N3CCOCC3)nc3sc4c(=O)[nH]cnc4c23)CS1 |  | inconclusive: 31.6 µM [inhibitor, full curve, poor fit] |
| CCOc1cccc(C2C(C#N)=C(N)Oc3cc(C)[nH]c(=O)c32)c1OCC (stereo unspecified) |  | inconclusive: 44.7 µM [inhibitor, single point] |
| COC(=O)[C@@H](NC(=O)CCc1nnc(-c2ccsc2)o1)C(C)C |  | inconclusive: 0.562 µM [inhibitor, partial curve, poor fit] |
| CC(=O)c1cccc(NC(=O)CCc2c(C)nc3c(-c4ccc(F)cc4)c(C)nn3c2C)c1 | inactive: -25.7% |  |
| COc1cc(NC(=O)c2ccccc2F)c(OC)cc1NC(=O)CN1CCOCC1 |  | active: 44.7 µM |
| O=C(Nc1cn(-c2ccccc2)nc1-c1cccs1)c1ccco1 |  | inconclusive: 79.4 µM [inhibitor, single point] |
| COCCNS(=O)(=O)c1cc(OC)ccc1OC |  | inconclusive: 89.1 µM [inhibitor, partial curve, poor fit] |
| C=CCNc1nc(-c2cccs2)c(CC(=O)O)s1 | inactive: -4.53% [at 12.7 µM] |  |
| CS(=O)(=O)N1CCN(c2ccc(C(=O)NC34CC5CC(CC(C5)C3)C4)cc2[N+](=O)[O-])CC1 | inactive: -15.3% |  |
| O=C(O)CCCC/C=C(\c1ccccc1)c1cccnc1 |  | inconclusive: 3.16 µM [inhibitor, partial curve, poor fit] |
| CCOC(=O)CNC(=O)CN1CCCN(S(=O)(=O)c2ccc(Br)s2)CC1 |  | active: 50.1 µM |
| Oc1ccc(/C=N/NC(=S)Nc2cccnc2)cc1O |  | inconclusive: 28.2 µM [inhibitor, single point] |
| O=[N+]([O-])c1ccccc1/C=N/NC1=NS(=O)(=O)c2ccccc21 |  | inconclusive: 79.4 µM [inhibitor, single point] |
| Fc1cccc(F)c1-c1nc(-c2ccncc2)no1 |  | inactive |
| O=C(CSc1n[nH]c(-c2cccnc2)n1)OC1CCCCC1 | inactive: -2.17% [at 102 µM] |  |
| CCN1C(=NCc2ccccc2)N[C@@H](c2ccccc2)[C@H](C(=O)OC)[C@H]1C |  | inconclusive: 89.1 µM [inhibitor, single point] |
| CCCc1nc2sc3c(N4CCCCC4)ncnc3c2c2c1CCCC2 | inactive: 0.446% |  |
